# Assay results: the supplement of paper PMC8728848
# Some of the results follow.
# B1: SP8524D-bot-399-27-399 (Bacteroides ovatus) (protein)
# chain: DAKYDTLDTHAYIEEALSSTSQKVTVQATGESFTTLNVHLSNLSSTDNHYKLVTDQSVLDTYNHINGTGYIMLPKDYYTLPETITVKAGQYAADALSIALKAFSQEMMKSGESYALPVKLVLQDGSISPMENTGTFVILAESIIEFSAPMFVGAPSLKANKFTESPETYSQYTIEVRFQVANTADRDRAVFKNGGDDANFILLRFEDPQSDNENYKAHSLVQIVGRNRLYLNPSNSFKPNEWQHLALVCDGSNYRLYINGVDSGVLSIPTGATTFSDVNWFCLGDDSYSRWGNCKILMSEARIWSVVRSASQIQNNMTQVSPKSVGLEAYWRFNEGQGNVFEDATGKGHTLTTSATPTWIDGILSTDKSTEWK
# Key:
# Assay in all cases: glycan array binding signal (z-score within array); higher = stronger binding
# Details in all cases: glycan notation: IUPAC condensed, linker removed
# [1] = biological target: Fuc(a1-2)Gal(b1-4)GlcNAc(b1-3)Gal(b1-4)GlcNAc(b1-3)Gal(b1-4)GlcNAc
# In short: (§1)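 Arrays were curated from the Consortium for Functional Glycomics database, 3228 in total, and kept only where the protein sequence was available. Binding is expressed as a within-array Z-score. This score was averaged across arrays of the same protein sequence at different concentrations or buffers and across linkers, and negative values can be read as non-binding.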
# [2] = biological target: Fuc(a1-2)Gal(b1-4)GlcNAc(b1-3)GalNAc
# In short: as §1
# [3] = biological target: Fuc(a1-2)Gal(b1-4)GlcNAc(b1-3)[Fuc(a1-2)Gal(b1-4)GlcNAc(b1-6)]GalNAc
# In short: as §1
# [4] = biological target: Fuc(a1-2)Gal(b1-4)GlcNAc(b1-3)[Fuc(a1-3)[Gal(b1-4)]GlcNAc(b1-6)]Gal(b1-4)Glc
# In short: as §1
# [5] = biological target: Fuc(a1-2)Gal(b1-4)GlcNAc(b1-6)GalNAc
# In short: as §1
# [6] = biological target: Fuc(a1-2)Gal(b1-4)GlcNAc6S
# In short: as §1
# [7] = biological target: Fuc(a1-2)Gal(b1-4)[Fuc(a1-3)]GlcNAc
# In short: as §1
# [8] = biological target: Fuc(a1-2)Gal(b1-4)[Fuc(a1-3)]GlcNAc(b1-2)Man(a1-3)[Fuc(a1-2)Gal(b1-4)[Fuc(a1-3)]GlcNAc(b1-2)Man(a1-6)]Man(b1-4)GlcNAc(b1-4)[Fuc(a1-6)]GlcNAc
# In short: as §1
# [9] = biological target: Fuc(a1-2)Gal(b1-4)[Fuc(a1-3)]GlcNAc(b1-2)[Fuc(a1-2)Gal(b1-4)[Fuc(a1-3)]GlcNAc(b1-4)]Man(a1-3)[Fuc(a1-2)Gal(b1-4)[Fuc(a1-3)]GlcNAc(b1-2)Man(a1-6)]Man(b1-4)GlcNAc(b1-4)GlcNAc
# In short: as §1
# [10] = biological target: Fuc(a1-2)Gal(b1-4)[Fuc(a1-3)]GlcNAc(b1-3)Gal(b1-4)[Fuc(a1-3)]GlcNAc
# In short: as §1
# [11] = biological target: Fuc(a1-2)Gal(b1-4)[Fuc(a1-3)]GlcNAc(b1-3)Gal(b1-4)[Fuc(a1-3)]GlcNAc(b1-3)Gal(b1-4)[Fuc(a1-3)]GlcNAc
# In short: as §1
# [12] = biological target: Fuc(a1-2)Gal(b1-4)[Fuc(a1-3)]GlcNAc(b1-3)GalNAc
# In short: as §1
# [13] = biological target: Fuc(a1-2)Gal(b1-4)[Fuc(a1-3)]GlcNAc(b1-3)[Neu5Ac(a2-6)Gal(b1-4)GlcNAc(b1-6)]Gal(b1-4)Glc
# In short: as §1
# [14] = biological target: Fuc(a1-2)Gal3S(b1-4)GlcNAc
# In short: as §1
# [15] = biological target: Fuc(a1-2)Gal6S(b1-3)GlcNAc
# In short: as §1
# [16] = biological target: Fuc(a1-2)Gal6S(b1-3)GlcNAc6S
# In short: as §1
# [17] = biological target: Fuc(a1-2)Gal6S(b1-4)Glc
# In short: as §1
# [18] = biological target: Fuc(a1-2)Gal6S(b1-4)Glc6S
# In short: as §1
# [19] = biological target: Fuc(a1-2)[Gal(a1-3)]Gal
# In short: as §1
# [20] = biological target: Fuc(a1-2)[Gal(a1-3)]Gal(b1-3)GalNAc
# In short: as §1
# [21] = biological target: Fuc(a1-2)[Gal(a1-3)]Gal(b1-3)GalNAc(b1-3)Gal(a1-4)Gal(b1-4)Glc
# In short: as §1
# [22] = biological target: Fuc(a1-2)[Gal(a1-3)]Gal(b1-3)GlcNAc
# In short: as §1
# [23] = biological target: Fuc(a1-2)[Gal(a1-3)]Gal(b1-3)GlcNAc(b1-2)Man(a1-3)[Fuc(a1-2)[Gal(a1-3)]Gal(b1-3)GlcNAc(b1-2)Man(a1-6)]Man(b1-4)GlcNAc(b1-4)GlcNAc
# In short: as §1
# [24] = biological target: Fuc(a1-2)[Gal(a1-3)]Gal(b1-3)GlcNAc(b1-2)Man(a1-3)[Fuc(a1-2)[Gal(a1-3)]Gal(b1-3)GlcNAc(b1-2)Man(a1-6)]Man(b1-4)GlcNAc(b1-4)[Fuc(a1-6)]GlcNAc
# In short: as §1
# [25] = biological target: Fuc(a1-2)[Gal(a1-3)]Gal(b1-3)GlcNAc(b1-3)GalNAc
# In short: as §1
# [26] = biological target: Fuc(a1-2)[Gal(a1-3)]Gal(b1-3)GlcNAc(b1-6)GalNAc
# In short: as §1
# [27] = biological target: Fuc(a1-2)[Gal(a1-3)]Gal(b1-4)Glc
# In short: as §1
# [28] = biological target: Fuc(a1-2)[Gal(a1-3)]Gal(b1-4)GlcNAc
# In short: as §1
# [29] = biological target: Fuc(a1-2)[Gal(a1-3)]Gal(b1-4)GlcNAc(b1-2)Man
# In short: as §1
# [30] = biological target: Fuc(a1-2)[Gal(a1-3)]Gal(b1-4)GlcNAc(b1-2)Man(a1-3)[Fuc(a1-2)[Gal(a1-3)]Gal(b1-4)GlcNAc(b1-2)Man(a1-6)]Man(b1-4)GlcNAc(b1-4)GlcNAc
# In short: as §1
binder,measurement,setting,value
B1,glycan array binding signal (z-score),[1],-0.049
same,glycan array binding signal (z-score),[2],0.212
same,glycan array binding signal (z-score),[3],-0.242
same,glycan array binding signal (z-score),[4],0.017
same,glycan array binding signal (z-score),[5],0.319
same,glycan array binding signal (z-score),[6],0.15
same,glycan array binding signal (z-score),[7],-0.295
same,glycan array binding signal (z-score),[8],0.132
same,glycan array binding signal (z-score),[9],0.092
same,glycan array binding signal (z-score),[10],-0.34
same,glycan array binding signal (z-score),[11],-0.13
same,glycan array binding signal (z-score),[12],0.451
same,glycan array binding signal (z-score),[13],-0.499
same,glycan array binding signal (z-score),[14],-0.121
same,glycan array binding signal (z-score),[15],-0.091
same,glycan array binding signal (z-score),[16],0.443
same,glycan array binding signal (z-score),[17],-0.456
same,glycan array binding signal (z-score),[18],0.037
same,glycan array binding signal (z-score),[19],1.34
same,glycan array binding signal (z-score),[20],0.028
same,glycan array binding signal (z-score),[21],0.312
same,glycan array binding signal (z-score),[22],0.17
same,glycan array binding signal (z-score),[23],-0.173
same,glycan array binding signal (z-score),[24],-0.47
same,glycan array binding signal (z-score),[25],-0.378
same,glycan array binding signal (z-score),[26],-0.387
same,glycan array binding signal (z-score),[27],-0.352
same,glycan array binding signal (z-score),[28],-0.05
same,glycan array binding signal (z-score),[29],-0.424
same,glycan array binding signal (z-score),[30],0.041
